From the supplement of paper PMC10126150
Sequences with one replicate were seen in a single cluster, so their values are uncertain.

Test system: ATP
Test: switch fluorescence ratio, 500 uM ATP over buffer (Cy3 cluster intensity, sum of 5 cycles each) (fold (ratio)); higher = stronger signal-on switching upon ATP binding; sequences stand for … in TCGTCGGCAGCGTCAGATGTGTATAAGAGACAGTTTTTTTTTTTTTTTTTTTTTTTTT…TC
Conditions: aptamer strand: ATP DNA aptamer (quencher-CACCTGGGGGAGTATTGCGGAGGAAGG + anchor), 100 nM annealed; ATP concentration: 500 uM; one replicate
In short: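 Cy3-labelled switching-strand clusters on a modified Illumina MiSeq flow-cell were annealed to 100 nM quencher-labelled ATP aptamer, imaged in selection buffer, then imaged after 15 min with 500 uM ATP at 22 °C. Five buffer/ATP cycles ran, with NaOH stripping and re-annealing between them. The fluorescence ratio is summed target-cycle over summed buffer-cycle Cy3 intensity per cluster, averaged per switch-domain sequence. Clusters outside 100-1000 RFU were excluded.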
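Further: ATP exposure 15 min at 22 °C before imaging.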

Sequence	switch fluorescence ratio
GCATAGTGCC	0.984
TTGTCCAAGA	1.03
CTGGTTATGT	0.973
GTTATCGGTC	0.952
CCCCGGGTTG	1.48
ACTGGGCTC	0.975
TTTCGCGCAA	3.2
CCGGTCCTAG	1.06
TCTTCTTTCA	1.03
CCCAGTTTTG	1.04
TACGGAGGCA	1.01
ACAGATTGCA	1.03
AGGTTTTAGC	1.04
TTATGTGGAA	1
CAATTCCTTT	0.978
AGTATCCGGG	0.988
TAGTGCGAAG	1.02
TCTATGTGGA	0.998
TTCCAAAGTA	1.01
GTGTCTCATA	1.02
CAATAATAAG	0.97
ACGGTAGGAT	0.985
CATTCAGTTA	0.998

Sequence	switch fluorescence ratio
TGGGGCCCAT	1.08
CGAGAGGGAT	1.02
CGCGGGTGAA	1
GATGGAGGCG	0.96
AGTAATAGAG	0.968
TGTTATGTCA	0.985
GAGGGTACAT	1.02
CTCATGGCTA	1.07
GTGAGGCACT	1.04
CAATGGTATT	1.04
TTTTGCATG	0.976
GGGAATCCCC	2.9
GATAGTCTAC	0.979
GATAGTTTGG	1.01
TATATGGGAG	0.971
GAATTCCTTA	1.02
CGTGGTTGGA	1.01
TCCGCCGCTG	2.31
CTTGTACGAA	1.03
GAGCCATTCA	1
GGGCGGCGAG	0.983
CGTTTTATAC	1.44
CTGTCCATGC	1.25

Sequence	switch fluorescence ratio
AATTCCGTAT	1.06
TCGTCGGTCC	1.02
AAGTACATTC	1.23
GTTGCCAGAG	0.993
ATGGAGTACG	0.997
TAGCGGGTCG	1.08
TTCAAACGA	0.992
TTACTATGGG	0.978
TCCAATGATC	1.1
TTCGAAGAAG	0.976
GGTGCGATGG	1.07
CGAGAACTTA	0.977
GGTACAAGGA	1.01
GATCTAGGA	1.01
CCTTGAGTAT	1.03
CAATATCTGG	1
AGCGGAATCC	1.09
GGACAGTGGT	1.06
TAGGCCTCAG	0.998
ATACTCGGTC	1.09
TCATCTTTCT	1.01
TCATATACGT	1.06
CTGACAAGAG	1.09

Sequence	switch fluorescence ratio
GAGCAAGTTT	1.04
GCTTGAATAC	1.07
TATATACGGA	1.05
CCTTAGGAAT	1.01
ACGCGGGGT	0.985
TGGGTGCCAA	0.998
CAAGTTCTTT	1.03
CTTATATGTC	1.08
CCATGATTTA	1.01
CCTGGGCGCA	1.17
CGCAGTTTCT	1.1
GGATTTAGAT	0.98
GCGGCAGGTT	0.976
GCCTTAAGGG	1.03
GCGGAGATTG	1.01
GGCGTCTGTT	1
CAAGCCAATG	1.02
ATGCTGCGTC	0.974
GCCTAGGGCG	0.986
CGTGCCAGAT	0.998
GAAATCCTGC	1.03
ACGTAGCGTG	1.07
TTACGGCTCT	1.04

Sequence	switch fluorescence ratio
GTCCGTCTCA	0.995
CGTAAGTTAG	1.02
CTACTCTTAC	1.45
TGGGGCATAC	2.13
TGTCGGCTGT	1.01
GGGATAACGT	0.955
TGTTCACTCG	0.985
AGGATACTTC	0.977
GTTCGAACTT	0.984
GTGGGGAGGA	0.943
AGGGCATGCG	1
GCATATTGCA	1.04
AAGAATAGC	1.01
CTTACGCC	1.06
AAGGGGGTG	1.03
CCAGAATTGC	1.08
TGGGCTATAA	1.4
TGTCTTGGAA	1.03
AAGTGGCGAA	1.01
CCACATGTTG	1.02
GAAATTTGAT	0.986
TTCTATCGTC	1
GGGGTCCGCT	1.01

Sequence	switch fluorescence ratio
AAGAAATTGT	1.16
TCAGAGAGAT	0.982
CTATAATTGA	1
TAAAGTAGT	1.03
CCTGTTTTAA	0.981
GGCGGGATTC	0.982
CTGAAATACG	2.52
GGAGTTTCAA	0.972
TCTGCTTTAC	2.27
AGGTTTCACG	0.994
CACTCGAGGA	0.99
GGCTGCAAAT	1.07
AACCTAACGG	1.28
CAGTTCTTTC	1
GGTCCATTGA	1.03
AGTCATATAT	1.02
ACTTCCATCA	1.05
TGGTACGTGT	0.997
CACGACTGCG	0.955
TCGGATCTTA	1.01
GATAGCCCAT	0.992
TTCCGCCAAC	2.42
GCAGCGCAGA	0.972

Sequence	switch fluorescence ratio
TGCTGGTAGG	1.04
AGGTTATCTT	0.998
CCCCGGGATA	2.48
ATCGGTAGGG	1
GGGCACCGCA	1.02
ATGCGCACTC	1.53
ATTTCCTGGG	1.01
TTCATCAGAG	0.999
ACGCTCGGAA	1.6
GCCGTCTTGT	0.981
AGTGATCCGG	0.987
ATGTGAGGAC	1.08
ATTTGCCCGC	1.13
ATCGACATAC	1.94
AGGTAGACGG	0.998
GGTGGCTGCA	0.97
GCGTAAAAAT	0.998
GTGGATGTTT	0.969
AGCAGCGTGG	0.979
